Sequences with one replicate were seen in a single cluster, so their values are uncertain.
Each sequence was assayed on ATP (assay: switch fluorescence ratio, 500 uM ATP over buffer (Cy3 cluster intensity, sum of 5 cycles each) (fold (ratio)); higher = stronger signal-on switching upon ATP binding; sequences stand for … in TCGTCGGCAGCGTCAGATGTGTATAAGAGACAGTTTTTTTTTTTTTTTTTTTTTTTTT…TC). Settings: aptamer strand: ATP DNA aptamer (quencher-CACCTGGGGGAGTATTGCGGAGGAAGG + anchor), 100 nM annealed; ATP concentration: 500 uM; one replicate.
Method in brief: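 Imaging in selection buffer was followed by imaging after 15 min with 500 uM ATP at 22 °C, for Cy3-labelled switching-strand clusters annealed to 100 nM quencher-labelled ATP aptamer on a modified Illumina MiSeq flow-cell. Five of these buffer/ATP cycles ran, separated by NaOH stripping and re-annealing. The fluorescence ratio per cluster is summed target-cycle over summed buffer-cycle Cy3 intensity, averaged per switch-domain sequence; clusters outside 100-1000 RFU were removed.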
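Further: ATP exposure 15 min at 22 °C before imaging.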

Sequence | switch fluorescence ratio
ATATTATTGG | 1.02
ATATTCCTCC | 1.91
ATATTCGGAT | 0.973
ATATTGCGGC | 1.01
ATATTTGAAT | 0.982
ATCAACCATT | 1.04
ATCAACGGAC | 1.35
ATCAAGAGGC | 1.01
ATCAAGCGGA | 1.01
ATCAAGGAAG | 0.977
ATCAAGGTAA | 0.972
ATCAAGGTAT | 0.999
ATCAATACGC | 1.42
ATCAATATTC | 1.04
ATCACACCCG | 1.17
ATCACCGGGG | 1.04
ATCACGTGTG | 1.01
ATCAGAAGAC | 1.08
ATCAGAAGTC | 0.996
ATCAGAATTA | 0.993
ATCAGAGATC | 1.07
ATCAGCCTTA | 0.986
ATCAGCGCGT | 0.985
ATCAGCTCAC | 1.13
ATCAGCTTGC | 1.04
ATCAGGTTTC | 1.06

Sequence | switch fluorescence ratio
ATCAGTATGC | 1.1
ATCATACAAA | 1.03
ATCATCGGCG | 1.04
ATCATGCACT | 1.08
ATCATGCAGG | 1.04
ATCATGGACC | 1.04
ATCATGTCCG | 0.944
ATCATTGACC | 1.11
ATCATTGTCA | 1.07
ATCCAAAGTT | 1.03
ATCCAACCGA | 1.06
ATCCAATCAA | 1.03
ATCCAGCTAT | 1.16
ATCCAGTGAC | 1.07
ATCCATCGCG | 1.04
ATCCCACTTA | 1.05
ATCCCCGGAA | 2.57
ATCCCGCACT | 2.16
ATCCCGCCGT | 1
ATCCCTAGGG | 1.32
ATCCCTCCG | 2.15
ATCCGCCGAA | 1.04
ATCCGCGCCC | 3.29
ATCCTAGTAG | 0.96
ATCCTGAAAT | 1.04
ATCCTGCTAT | 1.05

Sequence | switch fluorescence ratio
ATCGAAAATG | 0.988
ATCGAAAGCT | 1.22
ATCGAAGCAT | 1.23
ATCGACTCCC | 1.8
ATCGAGAATG | 1
ATCGAGCGCG | 1.01
ATCGAGGGC | 1.11
ATCGAGGGTG | 1.02
ATCGAGGTAT | 1.03
ATCGCCCAAC | 1.05
ATCGCCTGAC | 2.01
ATCGCGACGC | 1.09
ATCGCGCGC | 0.979
ATCGCTAGG | 1.02
ATCGCTTAGA | 1
ATCGGAGCCC | 1.05
ATCGGATCTG | 1.03
ATCGGCCTCT | 0.955
ATCGGCCTTT | 0.993
ATCGGGAGG | 1.38
ATCGGGGTTA | 0.965
ATCGGTAGGA | 1.02
ATCGGTCACA | 0.981
ATCGGTCCGC | 1.12
ATCGGTGCTA | 0.93
ATCGGTTATA | 0.993

Sequence | switch fluorescence ratio
ATCGTCTTTC | 1.03
ATCGTGCACG | 0.947
ATCGTGTTCG | 1.08
ATCTAAGTGA | 0.97
ATCTAGACCG | 0.985
ATCTAGATGG | 0.958
ATCTAGTACT | 1.03
ATCTATCGTA | 0.953
ATCTATGG | 0.995
ATCTATGTGT | 0.977
ATCTATTGGC | 1.03
ATCTCAAGGG | 1.03
ATCTCCATCA | 0.977
ATCTCCCGTA | 1.01
ATCTCGGTG | 0.992
ATCTCGGTGC | 1.04
ATCTCTCGTA | 1
ATCTGAGAG | 1.02
ATCTGCCAC | 1.18
ATCTGGAGGG | 1.03
ATCTGTTAC | 1.07
ATCTGTTGTA | 1.01
ATCTTAACCG | 1.03
